Some of the results follow. Viral Rep nickase domains cut single-stranded DNA in vitro for 1 h at 37 °C with 3 µM enzyme; only the middle of the 90-letter strands is printed. Numbers give uncut DNA relative to the enzyme-free pool, as log2; strong cutting gives strongly negative numbers. There is no active / inactive call. Counts are relative to all reads, so uncut sequences can rise above 0 when many others are cut.
Tests used:
Test in all cases: uncleaved DNA left, log2 of reads against the no-enzyme library (log2 ratio); higher = less cleavage (more negative = more Rep cleavage of the k-mer); sequences stand for … in CTCGTCCG…ACCGGAGA
[1] = test system: T1, Rep nickase domain of Muscovy duck circovirus
T1 sequence (Rep 1-111, printed without the tag): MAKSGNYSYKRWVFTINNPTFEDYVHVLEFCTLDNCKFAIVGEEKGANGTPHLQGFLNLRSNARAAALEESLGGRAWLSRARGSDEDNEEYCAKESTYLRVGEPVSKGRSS
Procedure: (§1)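 A pool of 90-nt single-stranded DNAs with seven random bases just before the constant AC of the nick site (name = the seven bases) was cut by 3 µM recombinant His6-SUMO-tagged Rep nickase domain (300 nM DNA, 50 mM HEPES pH 8.0, 50 mM NaCl, 1 mM MnCl2, 1 h, 37 °C, three replicates). Uncut DNA was amplified and sequenced.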

[2] = test system: T2, Rep nickase domain of banana bunchy top virus
T2 sequence (Rep 1-94, printed without the tag): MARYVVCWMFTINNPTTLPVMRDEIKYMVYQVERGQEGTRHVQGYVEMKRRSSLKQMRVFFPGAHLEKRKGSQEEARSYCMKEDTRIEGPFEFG
Procedure: as §1

[3] = test system: T3, Rep nickase domain of cabbage leaf curl virus
T3 sequence (Rep 1-116, printed without the tag): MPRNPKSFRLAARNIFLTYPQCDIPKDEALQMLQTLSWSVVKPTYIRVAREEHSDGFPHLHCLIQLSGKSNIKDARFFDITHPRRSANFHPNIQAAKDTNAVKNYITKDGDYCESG
Procedure: as §1

[4] = test system: T4, Rep nickase domain of chickpea chlorotic dwarf virus
T4 sequence (Rep 1-124, printed without the tag): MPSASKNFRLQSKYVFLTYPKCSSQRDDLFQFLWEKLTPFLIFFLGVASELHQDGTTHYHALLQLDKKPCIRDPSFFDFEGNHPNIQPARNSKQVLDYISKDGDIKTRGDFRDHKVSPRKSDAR
Procedure: as §1

[5] = test system: T5, Rep nickase domain of faba bean necrotic yellows virus
T5 sequence (Rep 1-98, printed without the tag): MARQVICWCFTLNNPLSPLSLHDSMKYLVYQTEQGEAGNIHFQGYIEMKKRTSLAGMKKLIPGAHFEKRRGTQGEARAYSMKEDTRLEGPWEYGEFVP
Procedure: as §1

[6] = test system: T6, Rep nickase domain of maize striate mosaic virus
T6 sequence (Rep 1-117, printed without the tag): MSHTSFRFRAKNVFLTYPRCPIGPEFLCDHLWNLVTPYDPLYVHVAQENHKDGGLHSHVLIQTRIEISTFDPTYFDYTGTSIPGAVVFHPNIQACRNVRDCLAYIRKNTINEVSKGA
Procedure: as §1

[7] = test system: T7, Rep nickase domain of porcine circovirus 2
T7 sequence (Rep 2-116, printed without the tag): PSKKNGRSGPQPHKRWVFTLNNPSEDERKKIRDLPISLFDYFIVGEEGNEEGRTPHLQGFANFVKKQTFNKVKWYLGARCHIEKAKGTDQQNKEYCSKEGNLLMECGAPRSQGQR
Procedure: as §1

[8] = test system: T8, Rep nickase domain of tomato golden mosaic virus
T8 sequence (Rep 1-124, printed without the tag): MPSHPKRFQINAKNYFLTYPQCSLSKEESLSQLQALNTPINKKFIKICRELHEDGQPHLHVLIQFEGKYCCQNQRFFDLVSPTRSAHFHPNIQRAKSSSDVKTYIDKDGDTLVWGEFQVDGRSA
Procedure: as §1

[9] = test system: T9, Rep nickase domain of tomato yellow leaf curl virus
T9 sequence (Rep 1-136, printed without the tag): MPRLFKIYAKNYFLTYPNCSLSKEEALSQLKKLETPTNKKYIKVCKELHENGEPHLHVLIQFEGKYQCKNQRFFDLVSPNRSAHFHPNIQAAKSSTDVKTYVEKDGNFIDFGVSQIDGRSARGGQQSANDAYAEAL
Procedure: as §1

[10] = test system: T10, Rep nickase domain of wheat dwarf virus
T10 sequence (Rep 1-137, printed without the tag): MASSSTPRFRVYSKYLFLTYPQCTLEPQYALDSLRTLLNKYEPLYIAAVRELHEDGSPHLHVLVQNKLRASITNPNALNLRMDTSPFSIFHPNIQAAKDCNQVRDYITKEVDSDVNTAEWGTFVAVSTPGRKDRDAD
Procedure: as §1

Sequence	uncleaved DNA left (log2) [1]	uncleaved DNA left (log2) [2]	uncleaved DNA left (log2) [3]	uncleaved DNA left (log2) [4]	uncleaved DNA left (log2) [5]	uncleaved DNA left (log2) [6]	uncleaved DNA left (log2) [7]	uncleaved DNA left (log2) [8]	uncleaved DNA left (log2) [9]	uncleaved DNA left (log2) [10]
TATCTCT	-0.12	-0.168	-0.479	-2.84	-0.0348	0.161	-0.932	-0.119	-0.0263	-0.167
TTCGCTC	0.0772	-0.0102	0.141	-0.561	-0.184	-0.761	0.0228	-0.0434	-0.00578	-0.0755
TGGCAAA	0.00339	0.118	0.343	0.894	-0.0584	0.679	0.132	-0.0389	0.00498	0.241
AGCGAGG	0.084	0.127	0.00218	0.783	0.0236	1.68	0.0966	0.253	0.0881	0.17
TTGTATC	0.0279	0.0386	0.156	0.0313	-0.0873	-0.355	-0.145	-0.0129	0.111	0.159
GCTTCCC	-0.101	-0.0917	0.0649	0.286	-0.136	0.367	-1.36	-0.0601	-0.047	-0.0148
ACGTTAC	0.0623	0.0621	-0.332	-1.63	-0.0136	-0.773	0.194	0.064	-0.0552	-0.0771
TTACGGC	0.0758	0.015	0.268	-0.33	0.1	0.00645	0.125	0.0265	0.0312	-0.0347
ACAAAGC	0.113	0.0486	-0.311	-0.226	0.0737	-1.15	0.277	0.167	0.107	0.0278
AACCAAA	0.0203	-0.068	-0.108	-0.741	-0.0295	-0.755	-0.316	-0.014	0.00933	0.111
ACACCCA	-0.105	-0.0163	-0.0385	-0.894	-0.0239	-0.519	-0.218	-0.0145	-0.142	0.0345
TTAGGAA	-0.0722	0.0157	0.33	1.17	-0.00556	1.42	0.15	0.0947	-0.00299	0.00055
TTCAATG	0.036	-0.0395	-0.387	-0.569	0.0572	-0.926	0.0467	0.127	0.0397	-0.00838
GGTACAA	0.0507	0.194	0.9	1.95	-0.0572	2.22	0.261	0.0335	0.107	0.184
GCGAGGA	0.0778	0.0354	0.227	0.564	-0.0865	0.684	0.0189	-0.0417	-0.0901	0.0359
CCACTCT	0.0894	-0.0211	-0.378	-2.45	0.0307	-0.68	0.0113	0.0127	0.0212	-0.158
ACGGCAG	-0.0875	-0.00931	-0.634	-0.396	0.00472	-0.871	0.166	0.00553	0.138	-0.154
AAAAAAG	0.121	0.0403	-0.651	-0.441	0.243	-1.2	0.323	0.157	0.133	0.0992
CGTGGGG	0.183	0.157	0.0643	0.463	0.0866	0.00464	0.234	0.122	0.162	0.0417
CCTCCGC	-0.0645	-0.121	-0.187	-0.806	0.0403	-0.772	0.0472	-0.0276	-0.0848	-0.0702

Sequence	uncleaved DNA left (log2) [1]	uncleaved DNA left (log2) [2]	uncleaved DNA left (log2) [3]	uncleaved DNA left (log2) [4]	uncleaved DNA left (log2) [5]	uncleaved DNA left (log2) [6]	uncleaved DNA left (log2) [7]	uncleaved DNA left (log2) [8]	uncleaved DNA left (log2) [9]	uncleaved DNA left (log2) [10]
ATTGTCC	0.0464	-0.0916	-0.105	-0.518	-0.0035	-0.589	-0.00949	0.0124	-0.039	-0.0933
TACTCGG	-0.0713	0.0242	0.452	1.33	-0.0108	1.72	0.00982	-0.00499	-0.217	-0.0345
AGCCATC	-0.0816	-0.11	0.104	0.585	-0.269	-0.164	-0.0306	-0.0728	0.0274	0.0443
AAGGACT	0.143	0.0205	0.0501	1.3	-0.0598	1.58	0.0811	0.0404	-0.0593	0.0829
GGAGCGG	-0.0384	-0.0805	0.281	0.806	-0.0901	1.01	0.0909	0.0928	-0.124	-0.0301
GCCTGTA	0.0333	0.0423	0.219	0.131	0.12	0.267	0.101	0.0915	-0.0143	-0.0126
AAAACTA	-0.0188	-0.00912	-0.252	-2.34	-0.0178	-0.587	-0.136	0.0607	0.0092	-0.0511
CGGACCG	0.0627	0.0901	0.0214	0.398	0.00825	0.138	0.182	0.101	-0.073	0.116
ACGAAGT	0.0113	0.0136	-0.111	-0.344	0.0178	-0.802	-0.0291	-0.091	0.0638	-0.0136
ACCTATA	-0.145	-0.0347	-0.385	-1.5	-0.0765	-0.856	-0.133	-0.00281	-0.169	-0.126
CTAGTTG	0.00312	-0.0136	-0.191	-0.214	0.107	-0.775	0.0651	-0.00793	-0.00702	-0.178
GCGGATG	-0.0594	0.0154	-0.0706	0.633	-0.138	1.61	-0.0231	-0.0771	-0.175	-0.146
AATTAAC	-0.111	-0.0791	-0.567	-1.9	-0.071	-0.906	-0.199	-0.141	-0.123	-0.0794
AGGGATT	-0.0649	-0.0371	0.211	1.41	-0.0989	1.7	0.0663	0.195	-0.0424	0.00308
TGGGGAA	-0.0708	-0.01	0.666	1.59	0.16	2.01	0.0683	-0.0257	0.0238	0.125
ACTTTGG	0.106	0.0469	-0.589	-0.472	0.118	-1.17	0.281	0.265	0.117	0.12
TAGTCGG	0.0382	0.0811	0.588	1.38	-0.0186	1.84	-0.124	0.168	-0.189	0.0918
AATTACA	-2.44	-0.77	-0.597	-3	-0.0588	-0.836	-2.09	-0.0725	0.0728	-0.119
ATGTTCC	0.0261	-0.014	0.0732	0.037	-0.0166	0.0958	-0.316	0.0389	0.063	0.0541
CCTCCCT	-0.238	-0.212	-0.282	-2.1	-0.0641	-0.405	-0.726	-0.246	-0.198	-0.247

Sequence	uncleaved DNA left (log2) [1]	uncleaved DNA left (log2) [2]	uncleaved DNA left (log2) [3]	uncleaved DNA left (log2) [4]	uncleaved DNA left (log2) [5]	uncleaved DNA left (log2) [6]	uncleaved DNA left (log2) [7]	uncleaved DNA left (log2) [8]	uncleaved DNA left (log2) [9]	uncleaved DNA left (log2) [10]
AAGCTAT	-0.00811	-0.0871	0.141	0.528	-0.0122	1.29	-2.22	0.0847	-0.0484	-0.0581
TACCCAG	-0.0376	-0.0398	-0.678	-1.09	0.0706	-1.23	-1.15	-0.121	-0.034	-0.204
ACCCGTA	0.135	0.0658	-0.0783	-0.584	0.198	-0.719	-0.00769	0.09	0.0715	0.014
ACTTAGT	-0.715	-0.171	-0.37	-0.802	-0.0441	-0.911	-3.16	0.101	0.0649	-0.0615
ATACGGC	0.0392	-0.104	-0.193	-0.331	-0.0464	-0.904	-0.0671	-0.11	-0.0656	-0.0409
GAATCGG	0.134	0.138	0.611	1.64	0.0843	2.11	0.196	0.252	0.0847	0.16
CTCAAAA	0.0258	0.0997	0.106	-0.000845	0.127	-0.622	-0.0183	0.0125	-0.00645	0.07
GACCTTA	-0.0729	0.0238	0.0431	-0.398	-0.128	0.567	-0.00688	0.0384	-0.0215	0.113
GTCTAGA	-0.0989	0.114	0.3	0.798	0.0392	1.59	0.144	0.108	0.0588	0.0244
GTGTGAT	-0.0807	-0.042	0.229	0.931	-0.111	1.66	-0.875	0.0653	-0.0629	0.0494
TCTACTC	0.136	0.0208	0.0374	-1.87	0.0868	-0.364	0.0113	0.0431	-0.0104	-0.0732
GTGCCAG	-0.1	0.0469	-0.251	0.0203	-0.0631	-0.512	-0.0187	-0.00631	0.0826	0.000201
CGTCTGC	0.105	0.041	0.0372	0.34	0.0553	0.639	0.0548	0.0039	-0.0881	-0.0426
GTTTTAC	-0.159	0.0311	0.325	0.745	0.0049	1.76	-0.107	0.0785	0.0469	0.131
AAAGACT	0.19	0.0131	0.0295	-0.501	0.0672	1.4	0.123	0.13	-0.0402	0.142
GCGTATT	-2.2	-2.02	-0.562	-1.37	-2.33	0.298	-2.57	-0.185	0.238	-0.674
TTTATCA	0.0357	0.145	0.629	0.849	-0.0286	1.49	-0.0211	0.00222	0.145	0.251
CTCCTCT	0.00957	0.0907	-0.105	-1.96	-0.0327	-0.416	-0.147	-0.108	-0.0261	0.0736
CAACCCA	-0.325	-0.026	-0.172	-2.22	0.0543	-0.504	-1.46	-0.0027	-0.0177	0.0541
GATTTAG	0.0518	0.0207	-0.649	-0.581	0.0175	-0.98	0.116	-0.0417	0.0174	-0.0261

Reference: the supplement of paper PMC7826260
